Results reported in PMC4336329 (PLoS ONE, 2015).
About 2,200 (0.71%) of roughly 310,000 compounds showed an effect of 50% or more. The effect is printed as a negative number. This is one part of the list.

Target: human ether-à-go-go-related gene (hERG) potassium channel (human, UniProt Q12809)
Experiment: primary screen, population patch clamp on CHO cells stably expressing hERG

Sequence of human ether-à-go-go-related gene (hERG) potassium channel (Q12809 whole entry, looked up): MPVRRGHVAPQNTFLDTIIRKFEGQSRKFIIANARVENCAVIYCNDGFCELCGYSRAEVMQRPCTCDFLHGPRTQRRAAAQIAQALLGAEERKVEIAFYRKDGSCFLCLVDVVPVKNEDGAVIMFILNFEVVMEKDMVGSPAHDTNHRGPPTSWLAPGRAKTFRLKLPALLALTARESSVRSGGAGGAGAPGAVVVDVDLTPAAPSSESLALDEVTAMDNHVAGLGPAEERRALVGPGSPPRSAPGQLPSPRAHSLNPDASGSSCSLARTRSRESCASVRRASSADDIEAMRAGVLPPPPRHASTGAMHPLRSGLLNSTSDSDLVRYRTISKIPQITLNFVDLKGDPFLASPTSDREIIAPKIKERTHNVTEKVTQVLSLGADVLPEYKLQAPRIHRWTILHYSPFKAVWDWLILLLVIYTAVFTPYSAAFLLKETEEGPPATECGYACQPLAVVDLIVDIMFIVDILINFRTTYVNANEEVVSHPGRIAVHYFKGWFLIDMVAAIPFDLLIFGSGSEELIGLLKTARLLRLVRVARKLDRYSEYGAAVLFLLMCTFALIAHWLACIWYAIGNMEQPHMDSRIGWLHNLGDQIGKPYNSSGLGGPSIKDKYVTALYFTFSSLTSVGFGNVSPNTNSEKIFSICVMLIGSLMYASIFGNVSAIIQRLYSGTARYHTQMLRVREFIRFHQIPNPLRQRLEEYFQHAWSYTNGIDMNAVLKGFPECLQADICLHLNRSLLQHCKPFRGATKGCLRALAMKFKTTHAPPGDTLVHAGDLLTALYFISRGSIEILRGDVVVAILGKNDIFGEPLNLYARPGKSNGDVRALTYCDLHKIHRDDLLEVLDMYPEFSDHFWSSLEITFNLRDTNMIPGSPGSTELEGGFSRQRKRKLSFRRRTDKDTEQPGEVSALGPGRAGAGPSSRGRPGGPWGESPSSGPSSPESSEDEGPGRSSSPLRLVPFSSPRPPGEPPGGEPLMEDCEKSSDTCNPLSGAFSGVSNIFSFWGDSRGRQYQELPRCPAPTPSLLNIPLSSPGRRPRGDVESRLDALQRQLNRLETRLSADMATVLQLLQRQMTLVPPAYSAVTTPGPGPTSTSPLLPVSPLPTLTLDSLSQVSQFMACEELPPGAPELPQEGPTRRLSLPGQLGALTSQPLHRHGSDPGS

Row | Compound | hERG current change (%, negative = inhibition) at 1uM [%]
1 | CC(CNC(=O)CCn1c(=O)c2cccn2c2ccc(F)cc21)c1ccccc1 (stereo not drawn) | 8.2
2 | COc1ccc(N2C(=O)CC(SCCc3nc4ccccc4[nH]3)C2=O)cc1 (stereo not drawn) | -3.9
3 | CN(C(=O)COC(=O)C1CCN(S(=O)(=O)c2c(Cl)cccc2Cl)CC1)C1CCCCC1 | 6.26
4 | Cc1c(NC(=O)CSc2nc3ccccc3s2)c(=O)n(-c2ccccc2)n1C | 3.26
5 | Cn1cc(/C=C2\C(=O)NC(=O)N(c3ccccc3)C2=O)c2ccccc21 | 6.76
6 | CC(C)NC(=O)c1[nH]nc2c1CCc1ccccc1-2 | 17.5
7 | Cc1ccc(-n2nc3c(=O)n(C(C)C(=O)NCCCc4ccccc4)nc(C)c3c2C)cc1 (stereo not drawn) | 4.85
8 | Cc1ccc(F)cc1NC(=O)c1ccc(NS(=O)(=O)c2ccc(Br)s2)cc1 | -20
9 | CCOC(=O)c1ccccc1NC(=O)c1cccc(F)c1 | 3.18
10 | Cc1nn(C)c(C)c1NC(=O)COc1ccc(Cl)cc1 | 5.1
11 | O=C(CCc1nnc(CCc2ccccc2)o1)N1CCCCC1CCn1cccn1 (stereo not drawn) | 8.15
12 | Cc1ccc(C(=O)N2N=C(c3ccc(NS(C)(=O)=O)cc3)CC2c2cccs2)cc1 (stereo not drawn) | 8.06
13 | CCOC(=O)N1CCN(C(=O)c2cn(CC)c3ccc(S(=O)(=O)N4CCOCC4)cc3c2=O)CC1 | 15.2
14 | CCCN(C(=O)/C=C/c1nc2ccccc2s1)C1CCS(=O)(=O)C1 (stereo not drawn) | 6.48
15 | Cc1cc(C)cc(NC(=O)C(OC(=O)c2sccc2C)c2ccccc2)c1 (stereo not drawn) | 18.3
16 | CCOC(=O)c1c(-c2cccc([N+](=O)[O-])c2)csc1N | 9.15
17 | c1ccc(-c2cc(-c3nnco3)c3ccccc3n2)nc1 | 13.2
18 | COc1ccc(OC)c(-c2csc(NC(=O)Cc3ccccc3)n2)c1 | -4.23
19 | CCCC(O)(CCN1CCOCC1)c1ccc(Cl)cc1 (stereo not drawn) | 6.26
20 | Cc1ccc(C(=O)O)cc1-n1c(C)cc(C=O)c1C | 7.68
21 | O=c1c2c([nH]c3ccccc13)CCCCC2 | 7
22 | Nc1cccc(-c2csc(-n3ncc(C(=O)O)c3C(F)(F)F)n2)c1 | 9.69
23 | O=C(NCCc1ccccc1F)C1CCC(=O)N(Cc2ccccc2F)C1 (stereo not drawn) | 16
24 | CCN(C(=O)CSc1nnc2ccccn12)c1c(N)n(Cc2ccccc2)c(=O)[nH]c1=O | 14.6
